# Experimental data: ChEMBL document CHEMBL4888484, “Replenishing the malaria drug discovery pipeline: Screening and hit evaluation of the MMV Hit Generation Library 1 (HGL1) against asexual blood stage Plasmodium falciparum ,using a nano luciferase reporter read-out” (2022)
# The campaign covered roughly 150,000 compounds. About 540 (0.36%) showed an effect of 50% or more. Some of the results follow.
# Test system: Plasmodium falciparum
# Test: Primary screen in NF54 nanoGlo assay, in single point, at 2uM, 72h; a lower Z score goes with more inhibition
# Format: functional, Erythrocyte
# Conditions: timepoint 72 hour
SMILES,% Inhibition [%],Z score
Cc1cc(C(=O)NCC(C)(C)n2cccn2)ns1,-21,2.2
O=C(NC1CCCCC1)c1[nH]cnc1C(=O)N1CC[C@H](O)C1,6,-0.73
CCC(C)N1CC(=O)N2Cc3[nH]c4ccccc4c3CC2C1=O (stereo not drawn),-8,1.32
CC(=O)c1cn(Cc2nc3ccc(F)cc3o2)c(=O)n(C)c1=O,3,-0.26
CO[C@@H](CNC(=O)c1ccon1)C(C)(C)C,2,-0.28
O=C(NCCc1cc(N2CCCC2)ncn1)[C@H]1C[C@H]2C=C[C@@H]1C2,0,-0.04
Cc1ncsc1CN[C@@H](C)c1ncc(Cl)n1C,12,-1.46
CCCCC1CCC(c2nnc(-c3ccc(Cl)cc3)o2)CC1 (stereo not drawn),4,-0.69
Cc1cccc(S(=O)(=O)N2CC[C@@H](C(F)(F)F)n3nccc32)c1,5,-0.81
O=C1N[C@H]2CCC[C@@H]1CN(C(=O)NCc1cc3ccc(F)cc3[nH]c1=O)C2,2,-0.29
CC[C@H]1C(=O)N(C)CCN1C(=O)c1coc(COc2cccc(F)c2)n1,-5,0.96
CC[C@H](NC(=O)[C@H]1C[C@@H]1c1ccccc1)C(F)(F)F,0,-0.03
O=C(c1cc2ccccc2[nH]1)N1CC[C@H](c2ncon2)C1,-4,0.74
O=C(NCC[C@H]1CCCN(Cc2ccco2)C1)c1cncnc1,-4,0.56
C[C@@H](CN)C(=O)N(CC1CC1)c1ccccc1,-9,1.53
COc1ccc(S(=O)(=O)N(CCN(C)C)Cc2ccccc2F)cn1,-11,1.71
CCOc1ncccc1CNC(=O)c1cnc(N2CCN(C)CC2)nc1C,-7,0.8
Cn1c(=O)n(C)c2cc(-c3nc4c([nH]3)C[C@H](c3ccccc3)CNC4=O)ccc21,3,-0.66
CC[C@@H](C(=O)NCCOC)N(c1ccc(OC)cc1)c1nc(-c2ccc(F)cc2)cs1,-13,2.05
CCN(C[C@H]1CCCCO1)C(=O)COc1ccc(Cl)cc1C,-13,2.38
COCCN(CCOc1ccccc1F)Cc1nccn1CCOC,5,-0.65

SMILES,% Inhibition [%],Z score
Fc1ccc(-c2cn(-c3ccc(S(F)(F)(F)(F)F)cc3)nn2)cc1,-17,1.95
Cc1nc(-c2c(C)noc2C)sc1C(=O)N(C)CCN(C)C1CC1,-4,0.45
COc1cccc(CNC(=O)COCc2nnc(C(=O)Nc3cccc(F)c3)s2)c1,-5,0.64
CCCNC(=O)COc1c(CC(=O)OC)cccc1OC,1,-0.14
CCC[C@@H](CNC(=O)c1c[nH]nc1-c1cnn(CC)c1)OC,-4,0.36
Cc1nc(-c2ccccc2)sc1[C@H](C)NC(=O)N1CCC(C)(O)CC1,-7,0.88
O=C([C@H](O)c1ccccc1)N1CCc2[nH]nc(-c3ccc(F)c(F)c3)c2C1,-15,1.87
COc1ncc(Br)cc1CNC(=O)Nc1nnn(C)c1C,-6,1.09
CCn1ncc(NC(=O)Cn2ccc(-c3cccn3C)n2)n1,5,-0.73
CCN1CCN(CCCN2CC3(CCN(c4cccc(C#N)n4)CC3)OC2=O)CC1,1,-0.13
COC(=O)c1cnc(NC[C@H]2Cc3ccccc3O2)c(S(=O)(=O)N2CCOCC2)c1,-2,0.41
CCc1nn(C)cc1CNC(=O)Nc1ccccc1N1CCOCC1,-8,0.94
O=c1c2cnc(N3CCc4ccccc4C3)nc2ccn1-c1ccc(Cl)c(Cl)c1,-8,1.01
NC(=O)CC[C@H]1CCCN(c2ncnc3c2ncn3C2CC(CO)(CO)C2)C1,1,-0.17
N#Cc1cc(F)cc(C(=O)Nc2ccc([C@@H](O)c3cccs3)cc2)c1,2,-0.39
CCOc1ccccc1CNC(=O)c1ccc2c(c1)NC(=O)[C@@H]1CCCCN21,-6,1.13
Cc1ncc(CN2CCc3c(cccc3NS(C)(=O)=O)C2)o1,5,-1.07
Cc1ccc(-n2nc(C(=O)N(C)C(C)C)nc2-c2ccco2)cc1,2,-0.23
Cc1ccc(C)c(-c2cnn(CC3CC3)c2)c1,0,0.02
Cc1ccc(CN(Cc2nc(C(=O)NCC(C)C)co2)[C@@H](C)C(C)C)c(C)c1,-8,1.05
Cc1ccc(OCc2ccc(C(=O)NC3=NCC(=O)N3)o2)c(C)c1,-11,1.38

SMILES,% Inhibition [%],Z score
CN(Cc1ccc(Cl)cc1)CC1OCCO1,3,-0.52
CCCc1c(C(=O)N2CCNc3ncccc32)cnn1C1CCCC1,-7,1.14
CCn1c(=O)c(CCC(=O)Nc2ccc(F)cc2C)nc2c(C)nn(-c3ccccc3)c21,0,0.04
CN(CCNC(=O)C(F)(F)Cl)S(=O)(=O)c1cccs1,-5,0.54
O=C(Nc1nc2ncccc2[nH]1)c1cc(F)c(Cl)cc1F,-5,0.55
CC(C)c1ccc(-n2nc3nc(NCCN4CCOCC4)nc(-c4ccccc4)c3c2N)cc1,-2,0.24
Cc1ccccc1S(=O)(=O)Nc1ccc(N2CCC(N3CCCCC3)CC2)c(C(=O)O)c1,1,-0.05
O=C(Nc1cccc(Cl)c1)c1ccc(N2C(=O)C3C4CCC(C4)C3C2=O)cc1 (stereo not drawn),9,-1.32
CCCN1Cc2cc(Cl)ccc2O[C@@H](C)C1=O,-3,0.33
CCn1nccc1CNc1ccc(F)cc1F,32,-4.28
O=C(Cn1cnc2nc(N3CCCC3)sc2c1=O)Nc1ccc(F)c(Cl)c1,-8,1.31
Cc1ccc(CCC(=O)N2CCn3c2nc2ccccc23)cc1Cl,-10,1.32
Cc1cc(NC(=O)C(C)N2CCCC2Cn2cccn2)on1 (stereo not drawn),-12,1.01
COc1ccc(-n2nc(C(=O)N3CCOCC3)c(=O)cc2OC)cc1,41,-5.97
CCC1Oc2cc(S(=O)(=O)N3CCCC(C(=O)NC(C)(C)CC)C3)c(C)cc2NC1=O (stereo not drawn),-21,2.65
CC(C)N(C[C@H](O)COc1ccccc1)C(C)C,-1,0.15
O=C(O)c1ccccc1NC(=O)c1cc(=O)[nH]c2ccccc12,0,0.03
COCc1nc(C)cc(N(C)Cc2ccns2)n1,9,-0.79
CCCn1c(O)c(-c2nc3ccccc3[nH]2)c(=O)c2ccccc21,-19,1.72
CCOc1ccc(Oc2ccc(S(=O)(=O)N3CCOCC3)cc2NC(=O)c2ccc(Cl)cc2)cc1,-14,2.27
Cn1c(Cl)cnc1CN1CCCN(C(=O)CC2CCCC2)CC1,2,-0.23

SMILES,% Inhibition [%],Z score
CCc1noc(-c2c(C)[nH]c(C)c2S(=O)(=O)Nc2cc(F)ccc2Cl)n1,-10,1.97
Cc1c(CC(=O)N2CC[C@H](CN)C2)c2c(n1Cc1ccccc1)CCCC2=O,-2,0.43
Cc1nn2c(C(F)(F)F)cc(-c3cccnc3)nc2c1-c1ccc(Cl)cc1,-4,0.63
Cc1cc(C(=O)NCC(F)(F)C2(O)CCCCC2)c(C)o1,-5,0.76
N[C@H]1C[C@H](c2cc(NCC3CCC(c4nc5ccccc5[nH]4)CC3)ncn2)C1 (stereo partly drawn),2,-0.28
NC(=O)[C@@H]1COCCN1c1nc(-c2ccccc2)ns1,-5,0.96
COC1(CC(=O)Nc2ncn(CC(=O)N(C)C)n2)CCC1,11,-1.45
C[C@@H](CNS(=O)(=O)CC1CCCC1)Cn1cccn1,16,-2.06
Cn1ccnc(NCCc2ccccc2N2CCOCC2)c1=O,4,-0.59
CC(C)(C)OC(=O)N1CC2CC1C2C(=O)NCC1CCCO1 (stereo not drawn),14,-1.67
O=C1NCCCc2[nH]c(C3(CO)CCCC3)nc21,8,-0.77
CC1(NC(=O)CN2CCOCC2)CCCCC1c1ccc(O)cc1 (stereo not drawn),-3,0.32
COc1ccc(Cl)cc1C(=O)N1CC[C@H](Oc2nc(C)cc(C)n2)C1,-16,2.56
O=C(Nc1ccccc1)c1cccc(Oc2cc(-c3ccc(F)cc3)ncn2)c1,-7,0.94
O=C(c1cnn(-c2ccccc2)n1)N1CC[C@H](N2C(=O)CNC2=O)C1,-7,1.39
Cc1n[nH]c(C)c1[C@H](C)NC(=O)c1cn(C)c(C)cc1=O,-2,0.21
COc1ccc(-n2cccn2)c(-c2cc(-c3ccccn3)nc(N)c2C#N)c1,-20,1.95
Cc1ccccc1C1c2ccsc2CCN1C(C)C(=O)N1CCN(C(=O)C(C)C)CC1 (stereo not drawn),1,-0.1
O=C(N[C@H]1C[C@H](c2ccccc2)C1)N1CCO[C@@H](CC(F)(F)F)C1,-3,0.62
O=C(NCc1ccco1)Nc1ccc2cc[nH]c2c1,-39,4.56
Cc1nc(N2CCC(c3ccccn3)CC2)cc2nncn12,3,-0.42
